{
  "source": "PubChem BioAssay AID1347120",
  "about": "(National Center for Advancing Translational Sciences (NCATS), 2019)",
  "note": "The campaign covered roughly 390,000 compounds. About 930 (0.24%) were called active. Inconclusive means that the source gave no clear call. Such entries were picked first, then a sample of the others. The call rests on the fitted dose curve; in most records, active means well fitted activation curve with a large enough effect; inconclusive means small, poorly fitted or top-dose-only effect; inactive means no such curve, though single readings can be large or run the other way. A potency beside an inconclusive call is a rough fit, not a confirmed value. Potency means the concentration at half of the fitted maximal effect; tags describe the fitted curve by direction and shape.",
  "data": [
    {"test": "qHTS for Suppressors of FUS Proteinopathy: Primary screen using FUS-linked yeast assay; further: nearly all actives have a fitted effect of over 55% in size;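 on growth rescue (activation): plate controls were DMSO vehicle for no effect and reference control for full effect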", "settings": "S. cerevisiae FUS-expressing, OD600, 24 h; Potency: growth rescue; growth rescue (activation): at 76.6 µM (top of the series)", "summary_of_the_method": "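Yeast expressing FUS under galactose induction, OD 0.005 in 2% galactose medium; compounds in a dilution series, 24 h at 30C. Growth rescue by absorbance at 600 nm; CP55940 positive control, DMSO negative.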", "values": [
      {"smiles": "Cc1ccc(S(=O)(=O)N2CCC(=O)N(CCOC(=O)Nc3cccc(Cl)c3)CC2)cc1", "Potency": "inconclusive: 35.5 µM [activator, single point]"},
      {"smiles": "COc1ccc(N2CCN(C(=O)Cn3nc(Cc4cccnc4)c4ccccc4c3=O)CC2)cc1", "Potency": "inactive"},
      {"smiles": "CCOc1cccc(-c2nn(-c3ccccc3)cc2/C=C(/C#N)C(=O)NCCCn2ccnc2)c1", "Potency": "inactive"},
      {"smiles": "CCCOc1ccc(C2=NC(c3ccc(F)cc3)=Nc3ccc(OC)cc3N2)cc1", "Potency": "inconclusive: 8.91 µM [activator, partial curve, poor fit]"},
      {"smiles": "O=C(c1ccc2c(c1)N(Cc1ccccc1)C(=O)c1ccccc1S2=O)N1CCC(Cc2ccccc2)CC1", "note": "(centres undefined)", "Potency": "inconclusive: 22.4 µM [activator, partial curve, poor fit]"},
      {"smiles": "Cc1ccc2c(c1)c(=O)c(S(=O)(=O)c1ccc(C)c(C)c1)cn2CC(=O)Nc1ccccc1", "Potency": "inconclusive: 8.91 µM [activator, partial curve, poor fit]"},
      {"smiles": "Cn1cccc1C(=O)N1CCN(S(=O)(=O)c2ccccc2F)CC1", "Potency": "inactive"},
      {"smiles": "CCn1c(=O)c(-c2cc(=O)[nH][nH]2)c(O)c2ccccc21", "Potency": "active: 31.6 µM"},
      {"smiles": "O=C(NCCNc1ccc([N+](=O)[O-])cc1C(F)(F)F)c1ccccc1F", "Potency": "inactive"},
      {"smiles": "COc1ccc(CNC(=O)CSc2ccsc2[N+](=O)[O-])cc1", "Potency": "inactive"},
      {"smiles": "COC(=O)[C@]1(Cc2ccccc2)N[C@H](c2ccc(-c3ccc(F)cc3)cc2)[C@@H]2C(=O)N(C)C(=O)[C@@H]21", "Potency": "inconclusive: 7.08 µM [activator, partial curve]"},
      {"smiles": "COC(=O)[C@@]1(Cc2ccc(F)cc2)[C@H]2c3cc(C(=O)N(C)C)n(Cc4ccccn4)c3C[C@H]2CN1C(=O)c1ccccc1", "Potency": "inconclusive: 31.6 µM [activator, single point]"},
      {"smiles": "C=CCn1c(-c2cccnc2Cl)nc2cc(Cl)c(Cl)cc21", "Potency": "inconclusive: 25.1 µM [activator, partial curve, poor fit]"},
      {"smiles": "COc1ccc(C(=O)NNS(=O)(=O)c2ccc(OC)cc2)cc1", "Potency": "inconclusive: 11.2 µM [activator, single point]"},
      {"smiles": "O=C1NC[C@H](Cc2ccccc2)N(C[C@H]2CCCN2C[C@H](Cc2ccccc2)N2C[C@H](Cc3ccccc3)N(CC3CCCCC3)C(=O)C2=O)C1=O", "Potency": "inconclusive: 25.1 µM [activator, single point]"},
      {"smiles": "Cc1c(-n2cc(C(=O)c3cc(Br)ccc3O)cc(C#N)c2=O)c(=O)n(-c2ccccc2)n1C", "Potency": "inconclusive: 10 µM [activator, partial curve, poor fit]"},
      {"smiles": "COc1ccc(Cl)cc1NC(=O)CN(C)C(=O)c1cc(-c2cccs2)nn1-c1ccccc1", "Potency": "inconclusive: 50.1 µM [activator, single point]"},
      {"smiles": "COC(=O)c1cc(NC(=O)c2ccc3c(c2)N(Cc2cccc(Cl)c2)C(=O)c2ccccc2S3=O)cc(C(=O)OC)c1", "note": "(centres undefined)", "Potency": "inactive"},
      {"smiles": "CNc1nc(-c2c(C)n(C)c3ccc(OC)cc23)cs1", "Potency": "inactive"},
      {"smiles": "O=C(Cn1nc(Cl)nc1Cl)c1ccc2c(c1)OCCO2", "growth rescue (activation)": "inconclusive: 63% [activator]"},
      {"smiles": "CCOC(=O)c1csc(NC(=O)C2CCCN(S(=O)(=O)c3ccc(Br)s3)C2)n1", "note": "(centres undefined)", "Potency": "inconclusive: 17.8 µM [activator, partial curve, poor fit]"},
      {"smiles": "COc1cccc(OCC(=O)NN=C2c3ccccc3-c3ccccc32)c1", "Potency": "inconclusive: 11.2 µM [activator, partial curve, poor fit]"},
      {"smiles": "CC(C)N(Cc1ccccc1)C(=O)CN1C(=O)COc2ccc(S(=O)(=O)N3CCCCCC3)cc21", "Potency": "inconclusive: 39.8 µM [activator, single point]"},
      {"smiles": "CCN(C(=O)c1cnc(N2CCOCC2)c2ccccc12)c1cc(C)ccc1C", "Potency": "inactive"},
      {"smiles": "COC(CNC(=O)[C@H](Cc1c[nH]c2ccccc12)NC1(C(=O)NC(c2ccccc2)c2ccccc2)CCCCC1)OC", "Potency": "inconclusive: 17.8 µM [activator, partial curve, poor fit]"},
      {"smiles": "COC(=O)[C@]12C[C@H](CC(=O)NCc3cccc4ccccc34)C(=O)N(CCC3=CCCCC3)C1=C[C@H](C1CCCC1)O[C@@H]2C", "Potency": "inconclusive: 12.6 µM [activator, partial curve, poor fit]"},
      {"smiles": "COc1ccc(-c2cnc3c(NC(C)=O)cc(-c4ccsc4)cn23)cc1OC", "Potency": "inconclusive: 39.8 µM [activator, single point]"},
      {"smiles": "COc1ccc(-c2cc(C(=O)Nc3cccc(S(=O)(=O)NCc4ccco4)c3)c3ccccc3n2)cc1OC", "Potency": "inconclusive: 11.2 µM [activator, partial curve]"},
      {"smiles": "CCCCc1cccc2[nH]cc(C)c12", "Potency": "inactive"},
      {"smiles": "COc1ccc(CCNC(=O)c2cc(S(=O)(=O)N3CCCC(C)C3)cn2C)cc1OC", "note": "(centres undefined)", "Potency": "inconclusive: 25.1 µM [activator, partial curve, poor fit]"},
      {"smiles": "CCN(CC)c1ccc(/C=C(/C#N)c2nc3ccccc3[nH]2)c(OC(C)C)c1", "Potency": "inconclusive: 17.8 µM [activator, single point]"},
      {"smiles": "Cc1ccccc1N1CCN(C(=O)C2CCC(=O)N(C3CCCC3)C2)CC1", "note": "(centres undefined)", "Potency": "inactive"},
      {"smiles": "CC(=O)c1ccc(NC(=O)C2Cc3ccccc3CN2C(=O)c2ccccc2)cc1", "note": "(centres undefined)", "Potency": "inconclusive: 25.1 µM [activator, partial curve]"},
      {"smiles": "Cc1ccc(CCNC(=O)c2ccc3c(=O)n(-c4ccccc4)c(=O)[nH]c3c2)cc1", "Potency": "inactive"},
      {"smiles": "COc1ccc(CCNC(=O)c2cccc(C(=O)NCCc3ccc(OC)cc3)n2)cc1", "Potency": "inactive"},
      {"smiles": "Cc1ccc(-c2noc(CSc3nnc(Cc4cccs4)n3-c3ccccc3)n2)cc1", "Potency": "inconclusive: 35.5 µM [activator, partial curve, poor fit]"},
      {"smiles": "O=C(N[C@H]1C/C=C\\C[C@@H](CC(=O)N(CCO)Cc2ccccc2)C(=O)N[C@H](Cc2c[nH]c3ccccc23)COC1=O)OCC1c2ccccc2-c2ccccc21", "Potency": "active: 20 µM"},
      {"smiles": "CCOC(=O)C1C(=O)NC(SCC(=O)OC)=C(C#N)C1c1ccccc1OCC", "note": "(centres undefined)", "Potency": "inactive"},
      {"smiles": "CCN(CC)c1ccc(-c2nc(-c3ccco3)no2)cc1[N+](=O)[O-]", "Potency": "inactive"}
    ]}
  ]
}
